# Source: the supplement of paper PMC11417369
# The other results are listed elsewhere or left out.
# Test system: PfSIP2 AP2 domain 1 (GST-tagged)
# Assay: gcPBM binding intensity (ln(normalized median fluorescence intensity)); higher = stronger DNA binding
# Outline: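 GST-tagged P. falciparum DNA-binding domains, expressed in E. coli (about 25 μg on average), were applied for 1 h to an Agilent 4 × 180k array of primer-extended double-stranded 36-bp intergenic genomic probes plus negative controls. The binding buffer was 1× PBS with 1% milk, 0.2 mg/ml BSA, 0.5% salmon testes DNA and 0.03% Triton X-100. Bound protein was detected with Alexa488 anti-GST antibody and scanned at 488 nm. Binding intensity is the highest Masliner-normalised natural-log median intensity across replicate spots of either probe orientation.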
row,Sequence,gcPBM binding intensity (ln)
1,ATAATATATTTAATCATACACACATTTATGTACCTA [CACACA_site1719],6.99
2,TTTTTTTTTAAAACATAATAAAAAATAAAACAACCT [GTGCAC_negctrl_site92],7.42
3,ATATATATATATATATGTACATATATATTGTTGATC [XGTACX_site8893],9.36
4,ACATATTATTCAAGTGCACACTTTATATTTATGATT [CACACA_site3295],9.49
5,ATTTAATTCGTACATACACACGCACATATATATATA [CACACA_site8415],8.85
6,TACAATAATGATTGTTGTACATTATTGATATTTAAA [XGTACX_site2940],6.78
7,TTTAATTTTTAATCAGTGCAATATTATATAATATAT,7.85
8,AAAAAAAAACAGAAAACACACAAATTATCTTAGAAT [CACACA_site309],6.6
9,TATATGAAATATTATGCACACAATATATAATATGAT [CACACA_site936],7.33
10,AATAATTCATCATATGCACACACAATACCAAAATGT [CACACA_site7945],8.05
11,TCATTTTAATTAAAAGTGCAAAAAATAATATAACTA [GTGCAC_site9968],8.31
12,ATTAATTCGTTTTGTACACACATAATGAATAATTTA [CACACA_site2235],7.06
13,ATATATATATATAATACACACTTATGAAATGTCTAA [CACACA_site5077],9.27
14,TTAATACATACATTCACACACACTAATTGTATATTT [CACACA_site9362],7.05
15,TTCTTTTTTCGACACACACACACAAGAAGATATATA [CACACA_site7456],7.63
16,ATACGAATAAATTTCGCATGCAGCATATATATCAAT [TGCATGCA_site612],6.88
17,TGTACAAATATGTTGAAAATAAAATTTCAATATATT [XGTACX_negctrl_site13],6.55
18,AACGAAAATAAGAAAAGTACAAAAAATACCAAATAA [XGTACX_site6171],6.92
19,ATATATGCATATATATGTACATATATATATATATAT [XGTACX_site7403],9.24
20,AATAAATAAAAAATTACACACATATATATAAATATA [CACACA_site3434],6.73
21,TAAATTATAAATTGCACACATATTTTTATATTTATA [CACACA_site2976],6.95
22,ATATTTTTAGATTCAGAAAAAAGATTCAACTTACTC [CACACA_negctrl_site1357],6.76

row,Sequence,gcPBM binding intensity (ln)
1,TATTTCATATGAAGAAGTACTATTAATAATTTCCTT [XGTACX_site6587],6.94
2,ATAATTATATACCATGCACACAAATATTCATACAGG [CACACA_site9343],8.19
3,AAGAACCATATTTAAACACACATACCTATATAAATA [CACACA_site7553],7.1
4,TTATGCATATATTATGCATGTAGTTTTAAATCACAT [TGCATGCA_site104],7.03
5,TATATACACATTTTTATACACACTTGTTTTATAAAA [CACACA_site8139],7.16
6,AAAAAATACATACATACACACATATTTATTTATATA [CACACA_site6554],7.05
7,GCACAAATATATATATATATATATATATATATATAT [GTGCAC_negctrl_site661],9.36
8,TATATATATTTATAATGTACACATATATGTAAATAT [XGTACX_site3695],7.42
9,TGCCCTAACCATACTACACACACTGCTCAAAATAGT [CACACA_site2219],7.26
10,TACAATATAAAATACACACACACAAACATATATTTA [CACACA_site5941],7.07
11,AAAATATATTATTATTGTACATATATTTTCATTTAC [XGTACX_site4593],7.01
12,TAAATATATTTATAAGCACACACTAATAAACCCACA [CACACA_site390],7.4
13,AATTTTTATACGGATACACACAAAAAAAAATAAAAA [CACACA_site897],7.1
14,TTTATTTTGTTTATGGTGCATTTTATGTAAATATAT,10.8
15,AATAAATAAATAAATAAATAAATATATATATATATA [GTGCAC_negctrl_site330],9.48
16,TAATGACAATAAAAATAAATAAATAAAAAAAAAAAA [TGCATGCA_negctrl_site321],6.63
17,ATATATTATCTGTACACACACATATAAGGGATTATA [CACACA_site4180],7.27
18,AAGGCATATATAATTTGTACATATTAAGAATTAGAT [XGTACX_site8660],7.11
19,AAGAAAATAAAAAGGTAAATATGTATAAATAAATAA [TGCATGCA_negctrl_site88],6.7
20,TGAAATAAAATTATTTGTACATATCGGAAAAAAAAA [XGTACX_site7131],6.77
21,TTTTTTGAAAATAAATGTACGAATTTTATATTTAAA [XGTACX_site2768],6.8
22,AAATTACCCATCCATACACACATATTTTTTTTAATT [CACACA_site2189],7.08

row,Sequence,gcPBM binding intensity (ln)
1,GATACAGATGGACACACACACATACATAAATACATA [CACACA_site5833],7.3
2,TATACGTATACCTATACACACATATATTTATTTATA [CACACA_site6716],7.1
3,TATATATATAACAGAATGCACTTTATATGTTCATAT [GTGCAC_site9880],8.35
4,GATATCCTTATATTTGCACACACACCCAATAAAATG [CACACA_site1028],7.62
5,AAAAAATACAGACACACACACACACGCATATAAATA [CACACA_site7644],7.15
6,TAATAAATTCATAATTGTACATTGAAGTATTATGCA [XGTACX_site5121],6.96
7,TTTTTTTATTTTGTATGTACATATCATTTGATATTC [XGTACX_site8449],6.98
8,AGTAGCGGCGGTATCATGCACACGTATAGATTGTAA [CACACA_site1587],7.14
9,ATTAAATCCGCACGCACACACACATATTAAGAAAAA [CACACA_site6062],7.84
10,GTTGAAAAAAATATATGTACGTATATATGTATGTAT [XGTACX_site8201],7.35
11,TTGTTTATATATATATGTACATATTTTAAGGCATCC [XGTACX_site6976],7.57
12,CCACGTATACGATGCACACGTATGCTTTATATATAG [CACACA_site4108],7.32
13,TTGGTAAATATATTTTGAATATAAGAAATATAGACG [CACACA_negctrl_site1634],7.13
14,ATTATTACTATATGTGTACACATCAACTGGTTTGAT [CACACA_site5563],7.58
15,TATTTTCAAAATGTTGTACACACAAAAAAAAAAAAA [CACACA_site8437],7.74
16,ATATACTTTTCAATGTGTACTTATGAATATATATGT [XGTACX_site7972],7.08
17,TATTTATAAATATGTGTGCACAATTTATTTTATAAT,9.67
18,TTATTTCTAACATGATGTACTTTTATATTATATAAT [XGTACX_site3574],7.01
19,TTTTTTTTATATATCTGTACATATATATATATATAT [XGTACX_site8280],8.84
20,CACTTAAAAAGCTAACGTACAAATACACATATATAA [XGTACX_site1851],7.04
21,AATATATATATAAATAATATACCTATATATTTTTTG [XGTACX_negctrl_site407],6.87
22,AAAAACAATTTAATCACACATATATGTCACAAAGAT [CACACA_site5043],7.13

row,Sequence,gcPBM binding intensity (ln)
1,ATATTAAATATTATCACACACATAATTATTTCCATA [CACACA_site2334],7.26
2,ATATATATATATATATGTACATACATATTGTTTGGT [XGTACX_site2284],9.3
3,CAAAATATTTTTTCCTGTACATAATTCCTATTTCAC [XGTACX_site3590],7.14
4,ATATAATAATATGGTTGTACATAAATAACACATGAA [XGTACX_site6592],7.1
5,TAATAATAGAAACACACACACATAGACATATATATA [CACACA_site1307],7.31
6,ATGATTATACAAAATATACACACGTGTAGACAAATA [CACACA_site1175],7
7,TATATTTCATTATATTGTACAAAATATATATATTAT [XGTACX_site4644],7.09
8,CATTATATATATTACTAAAAATTTTACCCCTTAGCT [CACACA_negctrl_site302],6.88
9,ATGTATATAAATATACGTACATAAATATAAGTATAG [XGTACX_site7155],7.24
10,ATACATGAATAAATATGTACACATATAAAAACATAT [XGTACX_site2740],7.11
11,TTTTTTCTTTTTATGTGTACTTATTTTATTTAATAA [XGTACX_site1080],6.83
12,TTTTAACAAAACTAAATAATCATATATATAAGATAT [GTGCAC_negctrl_site298],6.71
13,CATTTCTATATAAGCACACACGTGGAATTTTTTTTT [CACACA_site5537],6.86
14,ATTATTTGAACAACAAAAAAAAAGAAAAGAAAAGAA [CACACA_negctrl_site1031],7.13
15,AAATCGTAATATATTTGTACTTATTTGAAAAATCCA [XGTACX_site8141],7.01
16,TCATATTATAAATAAATAAATAAATATATATATATA [CACACA_negctrl_site577],9.32
17,AACACGCGCAGACACACACACACACGCACATATATA [CACACA_site7104],7.26
18,TTTTTTTTCTTTTTTTTAAGAAATAAATAAATAATT [XGTACX_negctrl_site137],6.77
19,ACTTAATTTTTTTTATGTACTTATTTAAAAAATTTT [XGTACX_site2712],7.35
20,CTTAAAGGGAAAAATACACACATATAAATATTATGT [CACACA_site2225],6.83
21,TTAGTAGTATTATGTAGTACATAATTATCATATCAT [XGTACX_site817],6.87
22,TAATTATTTTTATATTGTACAATATGTAAATATATA [XGTACX_site592],6.97
